# In PMC6919601, “Identification of Plasmodium dipeptidyl aminopeptidase allosteric inhibitors by high throughput screening” (PLoS ONE, 2019):
# About 230 (0.21%) of roughly 110,000 compounds showed an effect of 50% or more. Some of the results follow.
# Biological target: DPAP1 (Plasmodium falciparum, UniProt Q8IIJ9)
# Assay: primary screen, percent inhibition; read by cleavage of a fluorogenic dipeptide substrate; higher = more effect of the substance
# Set-up: species or system P. falciparum D10 trophozoite lysates; single well
# 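Further: 30 min substrate incubation versus DMSO and 10 µM JCP410 controls.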
# Sequence of DPAP1 (Q8IIJ9 whole entry, looked up): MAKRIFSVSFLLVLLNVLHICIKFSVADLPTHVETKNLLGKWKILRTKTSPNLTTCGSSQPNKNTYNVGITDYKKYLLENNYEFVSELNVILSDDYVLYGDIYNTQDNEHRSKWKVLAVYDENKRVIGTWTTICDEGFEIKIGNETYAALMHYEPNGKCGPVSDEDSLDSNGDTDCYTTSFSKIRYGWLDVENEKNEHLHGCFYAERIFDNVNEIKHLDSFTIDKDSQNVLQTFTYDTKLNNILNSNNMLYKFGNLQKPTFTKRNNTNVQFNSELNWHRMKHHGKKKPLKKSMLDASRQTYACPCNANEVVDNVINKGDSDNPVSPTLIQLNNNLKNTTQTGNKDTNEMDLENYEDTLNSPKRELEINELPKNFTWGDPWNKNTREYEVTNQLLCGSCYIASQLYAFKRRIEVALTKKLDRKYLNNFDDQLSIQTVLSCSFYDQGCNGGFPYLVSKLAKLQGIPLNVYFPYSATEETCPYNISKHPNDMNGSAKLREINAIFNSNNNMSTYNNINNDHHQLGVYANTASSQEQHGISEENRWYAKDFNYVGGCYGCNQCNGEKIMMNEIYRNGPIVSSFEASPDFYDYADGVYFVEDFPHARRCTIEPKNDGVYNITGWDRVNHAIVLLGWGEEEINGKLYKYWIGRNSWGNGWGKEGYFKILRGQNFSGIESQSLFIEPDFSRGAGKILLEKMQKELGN
row,SMILES,% Inhibition @ 10 uM [%]
1,CCN(CC)C(=O)c1ccc(N/C=C2/C(=O)NC(=O)N(c3cccc(C)c3)C2=O)cc1,0.121
2,COC(=O)C1=CN(Cc2ccc(Cl)cc2)C=C(C(=O)OC)C1c1cc(Cl)c(O)c(OC)c1,-1.48
3,CCOC(=O)c1c(C)n(CCO)c2ccc(O)cc12,3.05
4,Cn1cc(Br)c(C(=O)NCc2cc3ccccc3[nH]2)n1,-7.9
5,O=C(NC1CCN(Cc2ccccc2)CC1)c1cccc(Cl)c1,3.05
6,Cc1ccc(CCNCc2ccc(C(=O)O)s2)cc1,-7.93
7,O=C1OC(c2ccccc2F)=N/C1=C\C(Br)=C\c1ccccc1,-0.265
8,CCn1c2ccccc2c2cc(CNCCSc3nnnn3C)ccc21,-5.33
9,CCCN1C/C(=C\c2cccc(OC)c2OC)C2=NN(C(C)=O)C(c3cccc(OC)c3OC)C2C1 (stereo not shown),2.94
10,O=C1NC(=S)S/C1=C/c1cc(Br)c(Br)o1,2.4
11,COc1cc(C2C3=C(O)CC(C)(C)CC3=NC(C)=C2C(=O)Nc2ccccc2OC)ccc1O (stereo not shown),-2.68
12,Cc1cc(=O)n2nc(N3CCCC(C(=O)N4CCCCCC4)C3)sc2n1 (stereo not shown),-7.54
13,CCOC(=O)c1cnn(Cc2cccc(Cl)c2)c1C,1.76
14,O=C(O)c1ccc(C(=O)O)c(-c2ccccc2)c1,-1.77
15,CSc1ccc(-c2nnn(CC(=O)Nc3nn(-c4ccccc4)nc3C(N)=O)n2)cc1,2.7
16,CCn1cc(C(=O)NCc2ccco2)c2cc(OC)c(OC)cc2c1=O,-0.972
17,Cc1nnc(SCc2c(F)cccc2Cl)c2cc3occc3n12,-14.1
18,O=C(CCCn1c2ccccc2c2cnnc(O)c21)NC1CCCCCC1,-3.79
19,COc1ccc(-n2c3c(c(=O)[nH]c2=O)C(C(F)(F)F)(C(F)(F)F)NC(C)=N3)cc1,-4.97
20,Cc1cc(SCc2ccc(Cl)c(Cl)c2)n2nc(C)nc2n1,-2.19
21,CC1=C(C(=O)Nc2nccs2)C2(CCCCCC2)OC1=O,3.96
22,COC(=O)c1cc2sc(Cl)cc2n1Cc1ccc(C)cc1,-9.48
23,Cn1c(=O)c2c(-c3ccc(C(C)(C)C)cc3)n(-c3cccc(C#N)c3)cc2n(C)c1=O,-3.12
24,CCCC(=O)NCCc1nc2ccccc2[nH]1,-0.0235
25,COc1ccccc1CNS(=O)(=O)c1cccc2cccnc12,-9.81

row,SMILES,% Inhibition @ 10 uM [%]
1,CC(=O)c1ccc2oc(C(=O)O)cc(=O)c2c1,-0.636
2,O=C(CCc1ccccc1)Nc1ccc(S(=O)(=O)Nc2ccc(F)cc2)cc1,-0.173
3,O=C(CNS(=O)(=O)c1cccs1)NCCc1ccc(Cl)cc1,-5.51
4,CCOc1ccc(C2NC(S)=NC3=C2CCc2ccccc23)cc1 (stereo not shown),1.97
5,COC(=O)C1=C(C)N=C2SCCC(=O)N2C1c1ccc(C(C)C)cc1 (stereo not shown),-4.93
6,Cc1ccc(CNC(=O)CCc2c(C)nc3cc(-c4ccccc4)nn3c2C)cc1,1.26
7,O=C(NCC1CCCO1)c1ccc(N2C(=O)C3C4CCC(C4)C3C2=O)cc1 (stereo not shown),4.25
8,COc1ccc2ccccc2c1C1C(C(C)=O)=C(C)N=c2s/c(=C/c3ccco3)c(=O)n21 (stereo not shown),-0.736
9,Cc1cc2c(n1-c1ccc(C(N)=O)cc1)CC(C)(C)CC2=O,3.65
10,COc1cccc(-c2nc3cc(Cl)cnc3[nH]2)c1O,-3.63
11,COc1cc(CN(C)C2CCN(C)CC2)cc(OC)c1,2.26
12,CCOC(=O)c1cnn2c(C(F)(F)F)cc(-c3ccc(OC)cc3)nc12,7.63
13,CC(C)(C)C(=O)Nc1c(Cl)sc2nccc(=O)n12,4.41
14,O=c1oc2ccc3ccccc3c2cc1-c1nc(-c2ccc3c(c2)OCO3)no1,0.0147
15,CC(C)(C)c1[nH]nc2c1C(c1cccc(Cl)c1)C(C#N)=C(N)O2 (stereo not shown),2.7
16,Cc1ccc2c(CNCC(C)c3ccccc3)c(C(=O)O)n(Cc3ccccc3F)c2c1 (stereo not shown),0.889
17,CC1CN(S(=O)(=O)c2ccc(C(=O)N3CCC(C(N)=O)(N4CCCCC4)CC3)cc2)CC(C)O1 (stereo not shown),3.77
18,CC(=O)c1cnc2cc(-c3ccc(C)cc3)nn2c1C,3.15
19,CCOc1ccccc1C(=O)Nc1ccc(CC#N)cc1,-1.52
20,Cc1nn(C)c(C)c1CN(C)C(=O)c1cc2n(n1)C(C(F)(F)F)CC(c1cccs1)N2 (stereo not shown),-3.76
21,COC(=O)C1=C(C)N(Cc2ccco2)C(=O)/C1=C\c1ccc(C(=O)O)cc1,3.72
22,CCN(CC)c1ccc(NS(=O)(=O)c2ccc(OC)cc2)cc1,0.389
23,Cc1ccccc1-c1ccc(C(=O)N[C@@H](CC(C)C)C(=O)NCC#N)cc1,-3.04
24,CCC(=O)Nc1c2c(nc3c1CCC3)CCCC2,5.59
25,COc1ccc(-c2csc(NC(=O)c3cccc4ccccc34)c2C(=O)O)cc1,6.52

row,SMILES,% Inhibition @ 10 uM [%]
1,O=C(Cc1ccccc1)NCc1nnc(S)n1-c1cccc(C(F)(F)F)c1,6.51
2,COc1cccc(S(=O)(=O)NCc2ccc(C(=O)N3CCN(c4ccccc4F)CC3)cc2)c1,0.214
3,COc1ccc(OC)c(C2=NOC(C(=O)N3CCCC3)C2)c1 (stereo not shown),-0.431
4,COc1ccc(C(=N)NOC(=O)CCCc2ccccc2)cc1OC,-1.47
5,CC1=NC(=S)NC(c2ccc(Cl)cc2)/C1=C(/O)OC(C)C (stereo not shown),-6.6
6,Cc1cc(C)nc(SCC(O)COC(C)C)n1 (stereo not shown),1.87
7,C=CCN1C(=O)/C(=C\c2cc(C)n(-c3ccccc3)c2C)C(C(=O)OC)=C1C,-4.93
8,COc1cc2nc(S)nc(NCCCN3CCCCC3C)c2cc1OC (stereo not shown),-2.83
9,CCCn1c2ccccc2c2cnnc(O)c21,-3.31
10,COc1ccc(CN(C)C2CCCCC2)cc1C,-1.86
11,c1ccc(CC2CCN(Cc3ccc4c(c3)OCO4)CC2)cc1,0.605
12,CCOc1ccc(CNC(=O)c2ccc(CS(=O)c3ccc(Cl)cc3)o2)cc1 (stereo not shown),2.83
13,CCOc1ccc(C(=O)NCc2ccccc2)cc1S(=O)(=O)N1CCCCCC1,2.22
14,Cc1nn2c(=O)cc(COc3ccc(/C=C4/C(=N)N5C=CSC5=NC4=O)cc3)nc2s1,-3.95
15,COc1ccc(C2C(C(=O)N3CCOCC3)c3cc(OC)c(OC)cc3C(=O)N2C)cc1OC (stereo not shown),2.06
16,COCc1cc(C)nc2sc3c(c12)NC(c1ccc(F)cc1)NC3=O (stereo not shown),-0.0619
17,COc1ccc(S(=O)(=O)Nc2sc3c(c2C(N)=O)CCC3)cc1OC,5.11
18,C=C(C)Cn1c(COc2ccc(Cl)cc2)nnc1SCC(=O)O,-7.65
19,CCOc1ccc(C2=C(C)SC(/N=C/c3ccco3)=NN2)cc1,-7.59
20,Cc1ccc(C(=O)Nc2cnc3ccccn3c2=O)cc1,-5.2
21,CC(C)=C(NC(=O)c1ccccc1)C(=O)Nc1ccc(C(=O)O)cc1,-4.43
22,CCOc1ccc(-c2[nH]nc3c2C(c2cccnc2)C(C#N)=C(N)O3)c(OCC)c1 (stereo not shown),4.3
23,CC1=C(C(=O)Nc2ccc(Cl)cc2)C(c2cccc(F)c2)n2nc(CCCO)nc2N1 (stereo not shown),3.86
24,O=C(Nc1cccc2c1CCCC2)c1ccc(Br)cc1,-7.01
25,O=C(NCc1ccccc1)c1cc(-c2ccc(Cl)c(Cl)c2)on1,-7.15

row,SMILES,% Inhibition @ 10 uM [%]
1,COC(=O)c1sccc1NC(=O)c1noc2c1COc1ccccc1-2,1.68
2,O=C(c1ccccc1Cl)N(C1CCCCC1)C1CCCCC1,6.8
3,COc1cc(-c2cc(NC(=O)c3cc4c(=O)oc5ccc(C)cc5c4s3)on2)cc(OC)c1OC,5.21
4,COc1ccc(-c2nn(-c3nc4ccccc4s3)c(O)c2/C=N/CCN2CCOCC2)cc1,0.884
5,CC(=O)Nc1ccc2oc(-c3ccc(Br)c(C)c3)nc2c1,-0.511
6,Cc1cc(C)n2nc(CC(=O)NC3CCCCCCC3)nc2n1,4.47
7,CCN(CC)CCCNC(=O)Cn1ncc2c1-c1ccccc1OC2,4.88
8,CC(=O)OCc1cc(=O)n(C)c(=O)n1C,-2.12
9,CC(=O)c1ccc(NC(=O)C2C(C)(C)C2(C)C)cc1,-3.69
10,Cc1nn(C)cc1CNC(=O)c1cc2nc(-c3cccs3)cc(C(F)(F)F)n2n1,0.206
11,CC1CCN(S(=O)(=O)c2cn(CC(=O)NC3CCCC(C)C3C)c(=O)c3ccccc23)CC1 (stereo not shown),0.559
12,CC(C)(C)C#CC(=O)c1ccc(Cl)cc1,-2.06
13,CC(C)C(=O)Nc1sc2c(c1C(=O)O)CC(C)(C)OC2,-7.98
14,COc1ccc(-c2c3c(=O)n(C)c(=O)n(C)c3cn2Cc2ccccc2)cc1,-0.603
15,Sc1nc(Nn2cnnc2)c2ccccc2n1,0.379
16,NC(=O)c1c(NC(=O)C2CCC2)sc2c1CCCCC2,7.35
17,CNc1cc(=O)n(C2CCCCC2)c(=O)n1C1CCCCC1,-4.69
18,CC1(C)CC(CN)(c2ccccc2)CCO1 (stereo not shown),2.4
19,COc1ccc(-c2nc(-c3ccc(OC)cc3)c(CC(=O)O)s2)cc1,9.95
20,COc1ccc(-c2csc(Nc3ccc(N)cc3)n2)cc1,-6.43
21,Clc1ccc(N2CCN(Cc3ccc4ccccc4c3)CC2)cc1,-3.65
22,COc1cc(C(=O)NC2=NC(=O)CC(c3ccc(Cl)cc3)N2)cc(OC)c1OC (stereo not shown),1.66
23,Cc1cc(C(=O)NCC(N)=O)c2c(C)nn(-c3ccccc3)c2n1,6.84
24,Cc1c(C)n(Cc2ccccc2)c2ccc(C(=O)N3CCC4(CC3)OCCO4)cc12,4.11
25,Cc1nn(-c2ccc(F)cc2)c(O)c1/C=N/c1ccc(Cl)c(C(=O)O)c1,-2.16
